# Values joined by “and” are separate entries in the source; they are usually repeats but may differ in a detail not shown here. Identical values can stand only once. The list shows a part of the results. The main result of the screen is listed elsewhere. These columns were measured beside it and carry no call.
# Tests used:
# Experiment in all cases: Primary Screen for Target Class Profiling of Small Molecule Inhibitors of Methyltransferases
# [1] = target: Glycine N-methyltransferase (Homo sapiens) (UniProt Q14749); details: purified enzyme, MTase-Glo SAH luminescence; measured here: GNMT inhibition; at 40 µM; stronger effect = lower value
# How it was run: (§1)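 Each enzyme was reacted with SAM and its substrate, with compounds tested once at 40 uM; SAH formed was read by MTase-Glo luminescence.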
# [2] = target: Guanidinoacetate N-methyltransferase (Homo sapiens) (UniProt Q14353); details: purified enzyme, MTase-Glo SAH luminescence; measured here: GAMT inhibition; at 40 µM; stronger effect = lower value
# How it was run: as §1
# [3] = target: Histamine N-methyltransferase (Homo sapiens) (UniProt P50135); details: purified enzyme, MTase-Glo SAH luminescence; measured here: HNMT inhibition; at 40 µM; stronger effect = lower value
# How it was run: as §1
# [4] = target: Nicotinamide N-methyltransferase (Homo sapiens) (UniProt P40261); details: purified enzyme, MTase-Glo SAH luminescence; measured here: NNMT inhibition; at 40 µM; stronger effect = lower value
# How it was run: as §1
# [5] = target: Phenylethanolamine N-methyltransferase (Homo sapiens) (UniProt P11086); details: purified enzyme, MTase-Glo SAH luminescence; measured here: PNMT inhibition; at 40 µM; stronger effect = lower value
# How it was run: as §1
# On the % scale 0 is the no-effect control and ±100 the full control effect.
Compound,"activity change, negative = inhibition [1]","activity change, negative = inhibition [2]","activity change, negative = inhibition [3]","activity change, negative = inhibition [4]","activity change, negative = inhibition [5]"
O=c1ccc(NS(=O)(=O)c2ccccc2)c2n1C[C@H]1C[C@@H]2CN(S(=O)(=O)c2ccccc2)C1,-5.23%,-6.79%,-2.75%,-10.2%,-7.47%
CN1C(=O)c2cc(NC(=O)c3cccc(N(C)C)c3)ccc2N2CCN=C12,-8.2%,0%,3.37%,9.52%,-3.61%
COCCN1C(=O)c2cc3sccc3n2CC1(C)C(=O)NC1CCCCC1C (stereo not given),-0.797%,0.272%,3.91%,-8.57%,0.278%
CSc1cccc(N2C(=O)c3cc(-c4cccs4)nn3CC2(C)C(=O)NC2CCCCC2)c1 (stereo not given),-0.913%,0%,1.5%,-1.82%,-1.32%
C[C@H](Nc1ncnc2nc[nH]c12)c1cc2cccc(Cl)c2c(=O)n1-c1ccccc1,-12.1%,-14.9% and -4.4%,-1.09%,-20.3% and -20.6%,-4.38% and -0.107%
CC1(C(=O)NC2CCCC2)Cn2c(ccc2-c2ccco2)C(=O)N1CCN1CCCCCC1 (stereo not given),-6.73%,3.52%,-9.79%,-6.57%,-1.3%
CN(C)c1ccc(CNC(=O)Cn2c(=O)oc3cc(S(=O)(=O)NCc4ccccc4)ccc32)cc1,6.19%,0.465%,2.65%,1.23%,3.61%
COc1cccc([S+](=O)([O-])N2CCC3(CC(C)=NO3)C2)c1 (stereo not given),-12.1%,-11.1%,-2.14%,-8.15%,-5.12%
O=C1CSc2ccccc2N1Cc1cccc(C(F)(F)F)c1,0.352%,-10.3%,-4.44%,-55%,-18.4%
COc1ccc(NS(=O)(=O)c2cc3[nH]c(=O)[nH]c3cc2Cl)cc1,0.247%,9.61%,7.16%,5.78%,-19%
Cc1cc(C(=O)N2CCCn3ccnc3C2c2ccccc2)n(C)n1 (stereo not given),-3.59%,-1.8%,-0.8%,-5.7%,11.8%
CCC1(C)CC(=O)NC1=O (stereo not given),-1.28%,4.15%,0.156%,-8.16%,2.41%
O=C(c1cnccn1)N1CCN2C(=O)N(C3CCOCC3)C[C@H]2C1,1.17%,0.402%,-1.25%,-1.85%,-1.09%
CCC1C(=O)OC23C=C[C@@H]4C(C(=O)O)=CO[C@H](O[C@@H]12)[C@@H]43 (stereo not given in full),-0.535%,-3.3%,7.81%,-14%,-6.45%
CC(C)(O)CC(=O)NCCn1ccc2ncnc(Nc3ccc(Oc4cccc(C(F)(F)F)c4)c(Cl)c3)c21,-4.84%,10.6%,-0.546%,-32.3%,-6.06%
Cc1nc(CC(=O)N2CCCC3(CCC(=O)N(CCC(C)C)C3)C2)cs1 (stereo not given),6.08%,0.919%,2%,-1.4%,-1.08%
CCc1n[nH]c(CC2CCN(C(=O)C3CC3)CC2)n1,-0.26%,0.6%,2.9%,-2.19%,-0.1%
CCC(C)NC(=O)c1ccc2c(=O)n(C)c3nn(CC(=O)c4ccc(Cl)cc4)c(=O)n3c2c1 (stereo not given),1.7%,0.789%,4.94%,0.286%,6.59%
CC(C)CCNC(=O)C1(C)Cn2nc(C(=O)NCc3ccc(OC(C)C)cc3)cc2C(=O)N1C (stereo not given),-7.77%,3.72%,-5.49%,-1.85%,0.286%
CCOC(=O)C1CCN(C(=O)Cn2c(=O)oc3cc(S(=O)(=O)N4CCCC4)ccc32)CC1,-4.82%,1.17%,-5.97%,-0.102%,-7.15%
COC1=CC(=O)C[C@@H](C)[C@]12Oc1cc(OC)cc(OC)c1C2=O,0%,2.57%,-1.8%,-10.1%,3.01%
Cc1c(C(=O)N2CCOc3ccc(-c4ccc(N)nc4)cc3C2)ccc(S(C)(=O)=O)c1F,-11.6%,-4.94%,-24.9%,-18.9%,-8%
CN(C)CCCCCCNC(=O)c1cccc(-c2cc(O)c3ncccc3c2)c1,-4.58% and -1.76%,11.6%,-31% and -64.4%,-9.53% and -3.93%,-3.94% and 3.94%
CC1=C(CCC(C)O[C@@H]2O[C@H](CO)[C@@H](O)[C@H](O)[C@H]2O)C(C)(C)CCC1=O (stereo not given in full),0.196%,2.54%,9.09%,-9.95%,-1.24%
Cc1noc(-c2ccc(N3CCN(Cc4nccn4C)CC3)nc2)n1,-7.92%,-10%,-6.68%,-16.8%,-11.8%
OC[C@H]1NC[C@@H](O)[C@@H]1O,3.4%,9.01%,5.38%,-2.36%,7.81%
COCCNC(=O)c1cc2n(n1)CC(C)(C(=O)NC1CCCCCC1)N(C)C2=O (stereo not given),8.93%,3.13%,9.97%,9.76%,1.71%
NC(=S)c1ccc[n+]([C@@H]2O[C@@H](COP(=O)([O-])OP(=O)(O)OC[C@H]3O[C@@H](n4cnc5c(N)ncnc54)[C@H](OP(=O)(O)O)[C@@H]3O)C(O)C2O)c1 (stereo not given in full),24.3%,85.7%,19.8%,51.7%,26.1%
Cc1ccccc1NC(=O)CSc1nnc2n(C)c(=O)c3ccc(C(=O)NC4CCCCC4)cc3n12,2.31%,0.437%,-2.61%,0.78%,5.56%
C=C[C@@]1(C)CCC2=C([C@H]1OC(C)=O)[C@H](OC(C)=O)CC1[C@](C)(C(=O)OC)CC[C@H](OC(C)=O)[C@]21C (stereo not given in full),0.959%,-0.681%,7.83%,-16.7%,0.277%

# From PubChem BioAssay AID1745853 (National Center for Advancing Translational Sciences (NCATS), 2022)
